By IC50 is meant the dose at which the fit gives 50% viability; fits outside the tested doses are given as limits. The AUC spans the tested range (256-fold, ending at the top dose) of the same fit; the more sensitive the line, the further below 1. For some assays here: The top dose, if marked as inferred, comes from the curve model; the source does not state it. For some assays here: Where an entry number is given, a second screen of the drug exists; the two often differ.
Legend:
Experiment in all cases: Viability of human cancer cell lines after 72 h of drug (GDSC screen)
VNLG/124 = compound: CCCC(=O)OCc1ccc(OC(=O)/C=C(C)/C=C/C=C(C)/C=C/C2=C(C)CCCC2(C)C)cc1 [VNLG/124]; conditions: top dose 5.12 µM; top dose inferred
Protocol: (§1)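 Human cancer cell lines in 384-well plates, medium with 10% serum, drug for 72 h over a 256-fold dose range (nine 2-fold or five 4-fold steps up to the top dose). Adherent lines were fixed and stained with the nucleic acid dye Syto60, suspension lines read with resazurin; signal relative to control wells, capped at 0 and 100%. One two-parameter sigmoid per drug and line, fitted in a mixed model over all curves with the slope shared within a line.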

BX-912 = compound: O=C(Nc1cccc(Nc2ncc(Br)c(NCCc3cnc[nH]3)n2)c1)N1CCCC1 [BX-912]; conditions: top dose 10.24 µM; top dose inferred
Protocol: as §1

NSC-87877 = compound: O=S(=O)(O)c1ccc2cc(N=Nc3cc(S(=O)(=O)O)c4cccnc4c3O)ccc2c1 [NSC-87877]; conditions: top dose 16 µM; top dose inferred
Protocol: as §1

Elesclomol = compound: CN(NC(=O)CC(=O)NN(C)C(=S)c1ccccc1)C(=S)c1ccccc1 [Elesclomol]; conditions: top dose 0.2 µM; top dose inferred
Protocol: as §1

HG-5-88-01 = compound: COc1cc(N2CCC(C(N)=O)CC2)ccc1Nc1nc(N)c(Cl)c(Nc2ccccc2S(=O)(=O)C(C)C)n1 [HG-5-88-01]; conditions: top dose 10 µM; top dose inferred
Protocol: as §1

Masitinib = compound: Cc1ccc(NC(=O)c2ccc(CN3CCN(C)CC3)cc2)cc1Nc1nc(-c2cccnc2)cs1 [Masitinib]; conditions: top dose 20 µM
Protocol: as §1

Bleomycin = compound: Cc1c(N)nc([C@H](CC(N)=O)NC[C@H](N)C(N)=O)nc1C(=O)N[C@H](C(=O)N[C@H](C)[C@@H](O)[C@H](C)C(=O)N[C@H](C(=O)NCCc1nc(-c2nc(C(=O)NCCC[S+](C)C)cs2)cs1)[C@@H](C)O)[C@@H](OC1OC(CO)C(O)C(O)C1OC1OC(CO)C(O)C(OC(N)=O)C1O)c1cnc[nH]1 [Bleomycin]
Protocol: as §1

LAQ824 = compound: O=C(/C=C/c1ccc(CN(CCO)CCc2c[nH]c3ccccc23)cc1)NO [LAQ824]; conditions: top dose 1.024 µM; top dose inferred
Protocol: as §1

Tamoxifen = compound: CC/C(=C(\c1ccccc1)c1ccc(OCCN(C)C)cc1)c1ccccc1 [Tamoxifen]; conditions: top dose 5 µM
Protocol: as §1

OSI-930 = compound: O=C(Nc1ccc(OC(F)(F)F)cc1)c1sccc1NCc1ccnc2ccccc12 [OSI-930]; conditions: top dose 10.24 µM
Protocol: as §1

[1] = top dose 50 µM, screen: GDSC drug entry 1378, top dose inferred
[2] = top dose 64 µM, screen: GDSC drug entry 190

| Cell Line | AUC (VNLG/124) | IC50 (VNLG/124) [µM] | AUC (BX-912) | IC50 (BX-912) [µM] | AUC (NSC-87877) | IC50 (NSC-87877) [µM] | AUC (Elesclomol) | IC50 (Elesclomol) [µM] | AUC (HG-5-88-01) | IC50 (HG-5-88-01) [µM] | AUC (Masitinib) | IC50 (Masitinib) [µM] | AUC (Bleomycin; [1]) | IC50 (Bleomycin; [1]) [µM] | AUC (Bleomycin; [2]) | IC50 (Bleomycin; [2]) [µM] | AUC (LAQ824) | IC50 (LAQ824) [µM] | AUC (Tamoxifen) | IC50 (Tamoxifen) [µM] | AUC (OSI-930) | IC50 (OSI-930) [µM] |
| --- | --- | --- | --- | --- | --- | --- | --- | --- | --- | --- | --- | --- | --- | --- | --- | --- | --- | --- | --- | --- | --- | --- |
| LK-2 (lung squamous cell carcinoma, adherent) | 0.987 | > 5.12 | 0.6 | 1.18 | 0.905 | > 16 | 0.6 | 0.0232 | 0.987 | > 10 | 0.757 | 6.54 | 0.235 | 0.565 | 0.383 | 1.95 | 0.281 | 0.016 | 0.988 | > 5 | 0.956 | > 10.2 |
| LOU-NH91 (lung squamous cell carcinoma, adherent) | 0.983 | > 5.12 | 0.92 | > 10.2 | 0.979 | > 16 | 0.664 | 0.0373 | 0.842 | 7.94 | 0.941 | > 20 | 0.144 | 0.213 | 0.885 | > 64 | 0.633 | 0.155 | 0.982 | > 5 | 0.981 | > 10.2 |
| LS-123 (large intestine, adherent) | 0.977 | > 5.12 | 0.898 | > 10.2 | 0.982 | > 16 | 0.685 | 0.0492 | 0.874 | > 10 | 0.905 | > 20 | 0.894 | > 50 | 0.659 | 12.9 | 0.462 | 0.0488 | 0.977 | > 5 | 0.913 | > 10.2 |
| LS-180 (large intestine, adherent) | 0.982 | > 5.12 | 0.976 | > 10.2 | 0.949 | > 16 | 0.971 | > 0.2 | 0.973 | > 10 | 0.953 | > 20 | 0.36 | 1.21 | 0.291 | 0.939 | 0.358 | 0.0245 | 0.983 | > 5 | 0.975 | > 10.2 |
| LS-513 (large intestine, adherent) | 0.987 | > 5.12 | 0.909 | > 10.2 | 0.984 | > 16 | 0.811 | 0.112 | 0.813 | 5.69 | 0.908 | > 20 | 0.606 | 6.17 | 0.742 | 20.3 | 0.704 | 0.246 | 0.986 | > 5 | 0.948 | > 10.2 |
| LS-1034 (large intestine, adherent) | 0.981 | > 5.12 | 0.944 | > 10.2 | 0.985 | > 16 | 0.986 | > 0.2 | 0.884 | > 10 | 0.864 | > 20 | 0.922 | > 50 | 0.804 | 36.2 | 0.371 | 0.0271 | 0.985 | > 5 | 0.97 | > 10.2 |
| LU-65 (large cell lung carcinoma, suspension) | 0.981 | > 5.12 | 0.864 | > 10.2 | 0.986 | > 16 | 0.957 | > 0.2 | 0.957 | > 10 | 0.908 | > 20 | 0.966 | > 50 | 0.703 | 16.8 | 0.664 | 0.2 | 0.982 | > 5 | 0.961 | > 10.2 |
| LXF-289 (lung adenocarcinoma, adherent) | 0.982 | > 5.12 | 0.769 | 3.8 | 0.987 | > 16 | 0.574 | 0.0198 | 0.958 | > 10 | 0.853 | 15.2 | 0.326 | 1.03 | 0.139 | 0.303 | 0.446 | 0.0456 | 0.939 | > 5 | 0.972 | > 10.2 |
| LoVo (large intestine, adherent) | 0.984 | > 5.12 | 0.987 | > 10.2 | 0.984 | > 16 | 0.779 | 0.0827 | 0.963 | > 10 | 0.987 | > 20 | 0.446 | 2.22 | 0.115 | < 0.25 | 0.339 | 0.0227 | 0.986 | > 5 | 0.961 | > 10.2 |
| M059J (glioma, adherent) | 0.984 | > 5.12 | 0.869 | > 10.2 | 0.853 | 14.1 | 0.566 | 0.0193 | 0.947 | > 10 | 0.929 | > 20 | 0.496 | 3.04 | 0.535 | 5.02 | 0.499 | 0.0637 | 0.984 | > 5 | 0.983 | > 10.2 |
| MC-CAR (haematopoietic neoplasm, suspension) | 0.967 | > 5.12 | 0.775 | 3.6 | 0.989 | > 16 | 0.567 | 0.0186 | 0.964 | > 10 | 0.842 | 11.9 | 0.908 | > 50 | 0.349 | 1.61 | 0.343 | 0.0248 | 0.973 | > 5 | 0.917 | > 10.2 |
| MDA-MB-415 (breast, adherent) | 0.976 | > 5.12 | 0.982 | > 10.2 | 0.977 | > 16 | 0.811 | 0.153 | 0.874 | > 10 | 0.983 | > 20 | 0.96 | > 50 | 0.738 | 24.7 | 0.606 | 0.138 | 0.957 | > 5 | 0.9 | > 10.2 |
| MDST8 (large intestine, adherent) | 0.987 | > 5.12 | 0.973 | > 10.2 | 0.984 | > 16 | 0.582 | 0.0209 | 0.929 | > 10 | 0.969 | > 20 | 0.497 | 3.07 | 0.845 | 45.6 | 0.679 | 0.201 | 0.983 | > 5 | 0.986 | > 10.2 |
| MFE-280 (endometrium, adherent) | 0.982 | > 5.12 | 0.687 | 2.48 | 0.965 | > 16 | 0.8 | 0.129 | 0.936 | > 10 | 0.935 | > 20 | 0.947 | > 50 | 0.912 | > 64 | 0.581 | 0.113 | 0.829 | 4.33 | 0.945 | > 10.2 |
| MFE-296 (endometrium, adherent) | 0.985 | > 5.12 | 0.939 | > 10.2 | 0.966 | > 16 | 0.604 | 0.0247 | 0.937 | > 10 | 0.944 | > 20 | 0.437 | 2.07 | 0.204 | 0.491 | 0.454 | 0.0475 | 0.965 | > 5 | 0.966 | > 10.2 |
| MFM-223 (breast, adherent) | 0.986 | > 5.12 | 0.892 | > 10.2 | 0.969 | > 16 | 0.453 | 0.0093 | 0.984 | > 10 | 0.966 | > 20 | 0.94 | > 50 | 0.988 | > 64 | 0.735 | 0.298 | 0.985 | > 5 | 0.941 | > 10.2 |
| MHH-ES-1 (Ewing sarcoma, adherent) | 0.973 | > 5.12 | 0.445 | 0.454 | 0.969 | > 16 | 0.254 | 0.00249 | 0.766 | 3.63 | 0.854 | 15.4 | 0.125 | 0.202 | 0.199 | 0.521 | 0.373 | 0.0286 | 0.984 | > 5 | 0.948 | > 10.2 |
| MLMA (hairy cell leukaemia, semi-adherent) | 0.986 | > 5.12 | 0.728 | 2.86 | 0.984 | > 16 | 0.513 | – | 0.963 | > 10 | 0.826 | 12.2 | 0.753 | 16.9 | 0.274 | 0.908 | 0.371 | 0.0281 | 0.982 | > 5 | 0.966 | > 10.2 |
| MMAC-SF (melanoma, adherent) | 0.987 | > 5.12 | 0.972 | > 10.2 | 0.979 | > 16 | 0.748 | 0.067 | 0.806 | 5.36 | 0.891 | > 20 | 0.881 | > 50 | 0.763 | 23.9 | 0.496 | 0.0623 | 0.962 | > 5 | 0.983 | > 10.2 |
| MN-60 (B-cell leukaemia, suspension) | 0.979 | > 5.12 | 0.89 | > 10.2 | 0.982 | > 16 | 0.855 | 0.17 | 0.957 | > 10 | 0.858 | 17.5 | 0.948 | > 50 | 0.501 | 4.03 | 0.535 | 0.0799 | 0.96 | > 5 | 0.98 | > 10.2 |
| MOG-G-CCM (glioma, adherent) | 0.945 | > 5.12 | 0.928 | > 10.2 | 0.924 | > 16 | 0.342 | 0.00421 | 0.943 | > 10 | 0.876 | > 20 | 0.862 | > 50 | – | – | 0.44 | 0.0427 | 0.964 | > 5 | 0.927 | > 10.2 |
| MSTO-211H (mesothelioma, adherent) | 0.988 | > 5.12 | 0.966 | > 10.2 | 0.982 | > 16 | 0.872 | 0.16 | 0.967 | > 10 | 0.965 | > 20 | 0.192 | 0.426 | 0.942 | > 64 | 0.986 | > 1.02 | 0.99 | > 5 | 0.967 | > 10.2 |
| MZ1-PC (pancreas, adherent) | 0.938 | > 5.12 | 0.826 | 8.31 | 0.913 | > 16 | 0.812 | 0.141 | 0.741 | 3.69 | 0.863 | > 20 | 0.42 | 1.79 | 0.21 | 0.439 | 0.49 | 0.0599 | 0.966 | > 5 | 0.912 | > 10.2 |

Reference: the supplement of paper PMC4967469
